One molecule from the supplement of paper PMC8728848 can be followed below.

Common to all, as to assay: glycan array binding signal (z-score within array); higher = stronger binding
Common to all, as to details: glycan notation: IUPAC condensed, linker removed

Assay [1] deals with GlcNAc(a1-4)Gal(b1-4)GalNAc. In outline: (§1)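 The binding signal is a Z-score computed within each array. Data were drawn from 3228 arrays in the Consortium for Functional Glycomics database, restricted to those with a known protein sequence. Scores were averaged over arrays of the same protein sequence at different concentrations or buffers, and over linkers, and negative values can be taken as non-binding.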

In assay [2] the target is GlcNAc(a1-4)Gal(b1-4)GlcNAc. In outline:
as §1

The target in assay [3] is GlcNAc(a1-4)Gal(b1-4)GlcNAc(b1-3)Gal(b1-4)Glc. In outline:
as §1

The target in assay [4] is GlcNAc(a1-4)Gal(b1-4)GlcNAc(b1-3)Gal(b1-4)GlcNAc. In outline:
as §1

For assay [5], the target named is GlcNAc(a1-4)Gal(b1-4)GlcNAc(b1-3)Gal(b1-4)GlcNAc(b1-3)Gal(b1-4)GlcNAc. The procedure, abridged:
as §1

Assay [6] concerns the target GlcNAc(a1-4)Gal(b1-4)GlcNAc(b1-3)Gal(b1-4)[Fuc(a1-3)]GlcNAc(b1-3)Gal(b1-4)[Fuc(a1-3)]GlcNAc. In outline: as §1
Assay [7] has as its target GlcNAc(a1-6)Gal(b1-4)GlcNAc. In outline: as §1
Assay [8] addresses GlcNAc(b1-2)Gal(b1-3)GalNAc. In outline:
as §1

Assay [9] deals with GlcNAc(b1-2)Gal(b1-3)GlcNAc. In outline:
as §1

Assay [10] has as its target GlcNAc(b1-2)Man(a1-3)[GlcNAc(b1-2)Man(a1-6)]Man(b1-4)GlcNAc(b1-4)GlcNAc. In outline: as §1
The target in assay [11] is GlcNAc(b1-2)Man(a1-3)[GlcNAc(b1-2)Man(a1-6)]Man(b1-4)GlcNAc(b1-4)[Fuc(a1-6)]GlcNAc. The procedure, abridged: as §1
Assay [12] has as its target GlcNAc(b1-2)Man(a1-3)[GlcNAc(b1-4)][GlcNAc(b1-2)Man(a1-6)]Man(b1-4)GlcNAc(b1-4)GlcNAc. The procedure, abridged: as §1
For assay [13], the target named is GlcNAc(b1-2)Man(a1-3)[GlcNAc(b1-4)][GlcNAc(b1-2)Man(a1-6)]Man(b1-4)GlcNAc(b1-4)[Fuc(a1-6)]GlcNAc. The procedure, abridged:
as §1

For assay [14], the target named is GlcNAc(b1-2)[GlcNAc(b1-4)]Man(a1-3)[GlcNAc(b1-2)Man(a1-6)]Man(b1-4)GlcNAc(b1-4)GlcNAc. The procedure, abridged: as §1
Assay [15] deals with GlcNAc(b1-2)[GlcNAc(b1-4)]Man(a1-3)[GlcNAc(b1-4)][GlcNAc(b1-2)Man(a1-6)]Man(b1-4)GlcNAc(b1-4)GlcNAc. The procedure, abridged:
as §1

In assay [16] the target is GlcNAc(b1-2)[GlcNAc(b1-4)]Man(a1-3)[GlcNAc(b1-4)][GlcNAc(b1-2)[GlcNAc(b1-6)]Man(a1-6)]Man(b1-4)GlcNAc(b1-4)GlcNAc. The procedure, abridged:
as §1

Assay [17] concerns the target GlcNAc(b1-2)[GlcNAc(b1-4)]Man(a1-3)[GlcNAc(b1-4)][GlcNAc(b1-2)[GlcNAc(b1-6)]Man(a1-6)]Man(b1-4)GlcNAc(b1-4)[Fuc(a1-6)]GlcNAc. The procedure, abridged:
as §1

For assay [18], the target named is GlcNAc(b1-2)[GlcNAc(b1-6)]Man(a1-6)[GlcNAc(b1-2)Man(a1-3)]Man(b1-4)GlcNAc(b1-4)GlcNAc. The procedure, abridged:
as §1

For assay [19], the target named is GlcNAc(b1-2)[GlcNAc(b1-6)]Man(a1-6)[GlcNAc(b1-2)Man(a1-3)]Man(b1-4)GlcNAc(b1-4)[Fuc(a1-6)]GlcNAc. The procedure, abridged:
as §1

For assay [20], the target named is GlcNAc(b1-2)[GlcNAc(b1-6)]Man(a1-6)[GlcNAc(b1-2)Man(a1-3)][GlcNAc(b1-4)]Man(b1-4)GlcNAc(b1-4)GlcNAc. In outline:
as §1

In assay [21] the target is GlcNAc(b1-2)[GlcNAc(b1-6)]Man(a1-6)[GlcNAc(b1-4)][GlcNAc(b1-2)Man(a1-3)]Man(b1-4)GlcNAc(b1-4)GlcNAc. The procedure, abridged: as §1
Assay [22] has as its target GlcNAc(b1-3)Fuc. In outline:
as §1

Some of the results follow.

B1: Nictaba (Nicotiana tabacum), Q94EW1 (protein)
chain: MQGQWIAARDLSITWVDNPQYWTWKTVDPNIEVAELRRVAWLDIYGKIETKNLIRKTSYAVYLVFKLTDNPRELERATASLRFVNEVAEGAGIEGTTVFISKKKKLPGELGRFPHLRSDGWLEIKLGEFFNNLGEDGEVEMRLMEINDKTWKSGIIVKGFDIRPN
In the case of B1, the “glycan array binding signal (z-score)” value was -0.298 in [1]; -0.293 in assay [2]; -0.247 in assay [3]; -0.26 in [4]; -0.3 in assay [5]; -0.25 in [6]. Also, the “glycan array binding signal (z-score)” value in [7] was -0.332; in assay [8], -0.275; in [9] it was -0.344; in assay [10], 2.83; in assay [11] it was 0.805; in [12], -0.014. The “glycan array binding signal (z-score)” value in [13] is 0.03; in assay [14], -0.101; in assay [15], 0.103; in assay [16] it was -0.253; in [17], -0.372; in assay [18], 1.57. The “glycan array binding signal (z-score)” value in [19] is 2.27; in assay [20], -0.182; in assay [21], -0.382; in assay [22] it was -0.386.
